The text below walks through data of publication PMC5834211.

Holding throughout (experiment): co-IP; 293T cells cotransfected; whole cell lysates immunoprecipitated with anti-Flag beads, immunoblotted with anti-HA and anti-Flag (S5A, Fig 5I, S6A); in S5E with 20 ng Flag-MDA5 and intracellular HMW Poly(I:C) at the indicated time points
One assay deals with T1, Flag-mMAVS (mouse) (UniProt Q8VCF0).
T1 sequence: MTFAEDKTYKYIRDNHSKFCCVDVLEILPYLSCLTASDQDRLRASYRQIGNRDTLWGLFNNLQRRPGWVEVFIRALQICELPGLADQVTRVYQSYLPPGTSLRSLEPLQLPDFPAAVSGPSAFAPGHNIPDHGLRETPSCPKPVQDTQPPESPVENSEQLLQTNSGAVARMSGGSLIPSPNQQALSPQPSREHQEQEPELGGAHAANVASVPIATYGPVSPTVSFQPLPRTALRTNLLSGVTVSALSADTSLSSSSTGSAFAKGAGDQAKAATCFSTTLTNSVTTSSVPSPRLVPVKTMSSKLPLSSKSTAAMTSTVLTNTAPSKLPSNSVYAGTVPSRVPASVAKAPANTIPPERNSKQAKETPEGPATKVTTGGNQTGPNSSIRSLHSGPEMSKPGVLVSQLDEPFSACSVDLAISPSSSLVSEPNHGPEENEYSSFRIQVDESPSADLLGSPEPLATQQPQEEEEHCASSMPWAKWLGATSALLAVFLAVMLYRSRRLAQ

A further assay concerns the target T2, Flag-mMDA5 (mouse) (UniProt Q8R5F7).
T2 sequence: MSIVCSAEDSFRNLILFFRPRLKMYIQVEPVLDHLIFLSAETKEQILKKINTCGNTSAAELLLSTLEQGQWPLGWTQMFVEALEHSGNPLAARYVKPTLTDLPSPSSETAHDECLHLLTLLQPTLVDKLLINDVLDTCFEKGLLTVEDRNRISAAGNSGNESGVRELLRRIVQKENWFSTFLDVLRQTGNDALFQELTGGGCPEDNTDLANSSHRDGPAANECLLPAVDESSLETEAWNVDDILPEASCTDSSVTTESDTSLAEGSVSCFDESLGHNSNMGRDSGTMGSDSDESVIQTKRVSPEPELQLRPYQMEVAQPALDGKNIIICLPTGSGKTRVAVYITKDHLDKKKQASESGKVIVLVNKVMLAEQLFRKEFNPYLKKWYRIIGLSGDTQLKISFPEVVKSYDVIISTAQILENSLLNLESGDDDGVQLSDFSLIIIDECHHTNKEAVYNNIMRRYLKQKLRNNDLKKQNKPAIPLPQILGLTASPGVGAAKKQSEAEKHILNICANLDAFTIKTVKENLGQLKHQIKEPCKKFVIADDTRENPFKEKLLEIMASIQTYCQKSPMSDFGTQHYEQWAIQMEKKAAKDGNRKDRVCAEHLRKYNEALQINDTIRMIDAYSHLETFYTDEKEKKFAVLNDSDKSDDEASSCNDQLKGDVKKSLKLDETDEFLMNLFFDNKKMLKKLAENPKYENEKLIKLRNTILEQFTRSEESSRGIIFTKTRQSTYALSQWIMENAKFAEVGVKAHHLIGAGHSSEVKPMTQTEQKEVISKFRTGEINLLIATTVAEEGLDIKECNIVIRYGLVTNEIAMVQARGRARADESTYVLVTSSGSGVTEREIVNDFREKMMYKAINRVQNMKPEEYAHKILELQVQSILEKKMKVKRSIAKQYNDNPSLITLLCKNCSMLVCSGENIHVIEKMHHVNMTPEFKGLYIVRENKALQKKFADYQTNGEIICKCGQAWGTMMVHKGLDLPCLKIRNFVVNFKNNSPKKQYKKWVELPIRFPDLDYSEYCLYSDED

The next assay concerns the target T3, Flag-mRIG-I (mouse) (UniProt Q6Q899).
T3 sequence: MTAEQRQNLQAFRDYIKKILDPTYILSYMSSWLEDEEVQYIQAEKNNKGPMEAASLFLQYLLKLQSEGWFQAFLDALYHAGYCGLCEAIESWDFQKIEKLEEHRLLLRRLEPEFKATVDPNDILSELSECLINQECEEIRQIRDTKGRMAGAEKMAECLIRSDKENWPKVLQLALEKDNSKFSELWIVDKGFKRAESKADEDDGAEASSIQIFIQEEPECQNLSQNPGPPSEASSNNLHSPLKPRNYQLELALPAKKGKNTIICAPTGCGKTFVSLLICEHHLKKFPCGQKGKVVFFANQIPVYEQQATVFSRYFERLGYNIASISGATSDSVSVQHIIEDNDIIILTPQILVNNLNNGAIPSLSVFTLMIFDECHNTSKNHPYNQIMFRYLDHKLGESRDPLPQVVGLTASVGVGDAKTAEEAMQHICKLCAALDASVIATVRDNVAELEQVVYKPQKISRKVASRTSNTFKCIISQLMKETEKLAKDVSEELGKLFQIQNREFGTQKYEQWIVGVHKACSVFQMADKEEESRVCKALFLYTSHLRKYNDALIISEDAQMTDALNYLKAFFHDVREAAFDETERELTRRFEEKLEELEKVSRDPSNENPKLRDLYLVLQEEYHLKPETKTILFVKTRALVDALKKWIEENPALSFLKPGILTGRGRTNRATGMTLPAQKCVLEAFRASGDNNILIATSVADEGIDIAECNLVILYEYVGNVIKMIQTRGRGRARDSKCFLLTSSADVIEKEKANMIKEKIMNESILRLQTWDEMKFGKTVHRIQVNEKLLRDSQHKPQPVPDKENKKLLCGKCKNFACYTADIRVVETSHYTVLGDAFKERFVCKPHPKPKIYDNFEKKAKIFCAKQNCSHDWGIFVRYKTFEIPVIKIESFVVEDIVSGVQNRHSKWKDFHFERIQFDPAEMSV

No constants are given. Whether binding was seen depends on the method and setting. In cells and extracts the contact can be indirect. Some results given as binding are weak or reduced against the parent protein; the word gives no strength. Where a sequence is shown, tags or fusion partners need not be part of it.

B1: HA-mouse (m)DHX29 (protein, UniProt Q6PGC1 1-1365)
chain: MGGKNKKHKAPGAAAMRAAVSASRARSAEAGAVGEAQSKKPVARPAPAVPTGAREPRVKQGPKIYSFNSANDSGGSANLDKSILKVVINNKLEQRIIGVINEHKKQNSDRGAISGRLSAKKLQDLYMALQAFSFKTKDIEDAMTNTLLHGGDLHSALDWLCLNLSDDALPEGFSQEFEEQQPKSRPKFQSVQIQATLSPPQQTKTKRQEEDPKIKPKKEETTVEVNMKEWILRYAEQQDEEEKGEGSKGLEEEEKFDPNQRYLNLAARLLDAKEQAAAFKLEKNKQGQKEAQEKIRKFQREMETLEDHPIFNPAIKISHQQNEKKKPAPATEAESALNLNLFEKSAAATEEEKGKKKEPHDVRNFDYTARSWTGKSPKQFLIDWVRKNLPKSPNPSFEKVAVGRYWKCRVRVVRSEDDVLVVCPTILTEDGMQAQHLGATLALYRLVKGQSVHQLLPPTYRDVWLEWSDEEKKREELNKMETNKPRDLFIAKLLNKLKQQQQQQQQQRPESEKGGSEDPEESWENLVSDEDLAALSLEPTSAEDLAPVRSLFRRLQSTPKYQRLLKERQQLPVFKHRDSIVETLKRHRVVVVAGETGSGKSTQVPHFLLEDLLLDECGARKCNIVCTQPRRISAVSLATRVCEELGCESGPGGRNSLCGYQIRMESRASESTRLLYCTTGVLLRKLQEDGLLADVSHVIVDEVHERSVQSDFLLVILKEILQKRSDLHLILMSATVDSDKFSTYFTHCPILRISGRSYPVEVFHLEDIVEETGFVLEKDSEYCQKFLEEEEEITINVTSKAGGVKKYQEYIPVQSGASPELNPFYQKYSSRTQHAILYMNPHKINLDLILELLVYLDKSPQFRNIEGAVLIFLPGLAHIQQLYDLLSSDRRFYSERYQVIALHSVLSTQDQAAAFMFPPPGVRKIVLATNIAETGITIPDVVFVIDTGRTKENKYHESSQMSSLVETFVSKASALQRQGRAGRVRDGFCFRLYTRERFEGFLDYSVPEILRVPLEELCLHIMKCDLGSPEDFLSKALDPPQLQVISNAMNLLRKIGACEPNEPKLTPLGQHLAALPVNVKIGKMLIFGAIFGCLEPVATLAAVMTEKSPFITPIGRKDEADLAKSSLAVADSDHLTIYNAYLGWKKAQQEGGFRSEISYCQRNFLNRTSLLTLEDVKQELMKLVKAAGFSSSPSWEGRKGPQTLSFQDIALLKAVLAAGLYDSVGKIMCTKSVDVTEKLACMVETAQGKAQVHPSSVNRDLQTYGWLLYQEKVRYTRVYLRETTLITPFPVLLFGGDIEVQHRERLLSVDGWIYFQAPVKIAVIFKQLRVLIDSVLRKKLENPKMSLENDKILQIITELIKTENN
For the molecule B1, the binding entry with Flag-mMAVS (mouse) is given as “no binding”; in the assay with Flag-mMDA5 (mouse), “binds”; in the assay with Flag-mRIG-I (mouse), “no binding”.
